Data on nine molecules can be found in US20250084180A1 (MIE UNIVERSITY, published 2025).

Holding throughout (test): cell-based or functional assay
Test [1] concerns the target complex of a MAGE-A4 derived peptide and HLA-A2 (human).
The target is the same in test [2]. This is another data set of the same source.
Test [3] has as its target T1, CD19 (human, UniProt P15391 20-556).
T1 sequence (looked up): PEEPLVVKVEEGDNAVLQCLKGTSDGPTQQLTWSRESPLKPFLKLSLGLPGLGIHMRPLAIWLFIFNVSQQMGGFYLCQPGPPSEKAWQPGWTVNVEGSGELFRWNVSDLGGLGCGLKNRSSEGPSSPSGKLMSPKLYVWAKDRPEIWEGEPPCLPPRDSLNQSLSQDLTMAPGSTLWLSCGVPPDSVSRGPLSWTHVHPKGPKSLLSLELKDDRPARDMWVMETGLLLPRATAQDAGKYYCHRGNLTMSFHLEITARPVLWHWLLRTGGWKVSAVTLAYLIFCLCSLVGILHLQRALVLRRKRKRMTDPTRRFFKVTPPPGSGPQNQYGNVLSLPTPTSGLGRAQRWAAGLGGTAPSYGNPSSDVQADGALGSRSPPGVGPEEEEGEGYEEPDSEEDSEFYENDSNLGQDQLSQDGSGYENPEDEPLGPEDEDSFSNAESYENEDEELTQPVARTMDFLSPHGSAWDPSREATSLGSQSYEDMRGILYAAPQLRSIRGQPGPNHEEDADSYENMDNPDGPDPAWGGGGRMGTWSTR

In test [4] the target is T1, CD19. The source holds these as a separate data set.

B1: MAGE-A4-zG-Em1 (other)
chain: QVQLQVQLVQSGAEVKKPGSSVKVSCKASGGTFSSYAISWVRQAPGQGLEWMGGIIPIFGTANYAQKFQGRVTITADKSTSTAYMELSSLRSEDTAVYYCARSPRRAYHDAFDIWGQGTMVTVSSGGGGSGGGGSGGGGSSYELTQPPSMSVAPGKTASITCGGDHIGSKSVHWYQQKPGQAPVLVVYDDSDRPSGIPERFEGENEGNEATLTISGTQAMDEADYYCLAWDSSTAIFGGGTQLTVLVGQPKANPTVTLFPPSSEELQANKATLVCLISDFYPGAVTVAWKADGSPVKAGVETTKPSKQSNNKYAASSYLSLTPEQWKSHRSYSCQVTHEGSTVEKTVAPTECSARQTRFWVLVVVGGVLACYSLLVTVAFIIFWVRL[not shown - about 120 residues]RSQCMWPRETQLLLEVPPSTEDARSCQFPEEERGERSAEEKGRLGDLWV
B1: in test [1], the “Cell lysis (%), CAR-T cells on SK-MEL-37, Effecter:Target = 10:1” value (shortened to “Cell lysis (%) … Effecter:Target = 10:1”) is 44% and the “Ratio of Cell lysis to MAGE-A4-zG (1.00), SK-MEL-37, Effecter:Target = 10:1” value (shortened to “Ratio of Cell lysis … Effecter:Target = 10:1”) amounted to 1.35 ratio. Besides, in test [2], the “Cell lysis (%), CAR-T cells on SK-MEL-37, Effecter:Target = 3:1” value came to 33% and the “Ratio of Cell lysis to MAGE-A4-zG (1.00), SK-MEL-37, Effecter:Target = 3:1” value (“Ratio … SK-MEL-37, Effecter:Target = 3:1” below) was found to be 2.54 ratio.

B2: MAGE-A4-zG-Em2 (other)
chain: QVQLQVQLVQSGAEVKKPGSSVKVSCKASGGTFSSYAISWVRQAPGQGLEWMGGIIPIFGTANYAQKFQGRVTITADKSTSTAYMELSSLRSEDTAVYYCARSPRRAYHDAFDIWGQGTMVTVSSGGGGSGGGGSGGGGSSYELTQPPSMSVAPGKTASITCGGDHIGSKSVHWYQQKPGQAPVLVVYDDSDRPSGIPERFEGENEGNTAELTISGTQAMDEADYYCLAWDSSTAIFGGGTQLTVLVGQPKANPTVTLFPPSSEELQANKATLVCLISDFYPGAVTVAWKADGSPVKAGVETTKPSKQSNNKYAASSYLSLTPEQWKSHRSYSCQVTHEGSTVEKTVAPTECSARQTRFWVLVVVGGVLACYSLLVTVAFIIFWVRL[not shown - about 120 residues]RSQCMWPRETQLLLEVPPSTEDARSCQFPEEERGERSAEEKGRLGDLWV
Consider B2, for which, in test [1], the “Cell lysis (%) … Effecter:Target = 10:1” value worked out at 52% and the “Ratio of Cell lysis … Effecter:Target = 10:1” value is 1.56 ratio. Moreover, in test [2], the “Cell lysis (%), CAR-T cells on SK-MEL-37, Effecter:Target = 3:1” value amounted to 30% and the “Ratio … SK-MEL-37, Effecter:Target = 3:1” value worked out at 2.31 ratio.

B3: MAGE-A4-zG-Em3 (other)
chain: QVQLQVQLVQSGAEVKKPGSSVKVSCKASGGTFSSYAISWVRQAPGQGLEWMGGIIPIFGTANYAQKFQGRVTITADKSTSTAYMELSSLRSEDTAVYYCARSPRRAYHDAFDIWGQGTMVTVSSGGGGSGGGGSGGGGSSYELTQPPSMSVAPGKTASITCGGDHIGSKSVHWYQQKPGQAPVLVVYDDSDRPSGIPERFSGENEGNEAELTISGTQAMDEADYYCLAWDSSTAIFGGGTQLTVLVGQPKANPTVTLFPPSSEELQANKATLVCLISDFYPGAVTVAWKADGSPVKAGVETTKPSKQSNNKYAASSYLSLTPEQWKSHRSYSCQVTHEGSTVEKTVAPTECSARQTRFWVLVVVGGVLACYSLLVTVAFIIFWVRL[not shown - about 120 residues]RSQCMWPRETQLLLEVPPSTEDARSCQFPEEERGERSAEEKGRLGDLWV
Regarding B3, in test [1], the “Cell lysis (%) … Effecter:Target = 10:1” value was determined as 51% and the “Ratio of Cell lysis … Effecter:Target = 10:1” value worked out at 1.54 ratio. Further, in test [2], the “Cell lysis (%), CAR-T cells on SK-MEL-37, Effecter:Target = 3:1” value came to 24% and the “Ratio … SK-MEL-37, Effecter:Target = 3:1” value is 1.85 ratio.

B4: CD19-28z-Dm8 (other)
chain: DIQMTQTTSSLSASLGDRVTISCRASQDISKYLNWYQQKPDGTVKLLIYHTSRLHSGVPDRFDGDGSGTDYSLTISNLEQEDIATYFCQQGNTLPYTFGGGTKLEITGGGGSGGGGSGGGGSEVKLQESGPGLVAPSQSLSVTCTVSGVSLPDYGVSWIRQPPRKGLEWLGVIWGSETTYYNSALKSRLTIIKDNSKSQVFLKMNSLQTDDTAIYYCAKHYYYGGSYAMDYWGQGTSVTVSSIEVMYPPPYLDNEKSNGTIIHVKGKHLCPSPLFPGPSKPFWVLVVVGGVLACYSLLVTVAFIIFWVRSKRSRLLHSDYMNMTPRRPGPTRKHYQPYAPPRDFAAYRSL[not shown - about 120 residues]
As to B4, in test [3], the “Cell lysis (%), CAR-T cells on Nalm-6, Effecter:Target = 1:1” value (“Cell lysis (%) … Effecter:Target = 1:1” below) was determined as 26% and the “Ratio of Cell lysis to CD19-28z (1.00), Nalm-6, Effecter:Target = 1:1” value (“Ratio of Cell lysis … Effecter:Target = 1:1” for short) amounted to 1.24 ratio. Also, in test [4], the “Cell lysis (%), CAR-T cells on Nalm-6, Effecter:Target = 3:1” value was determined as 60% and the “Ratio of Cell lysis to CD19-28z (1.00), Nalm-6, Effecter:Target = 3:1” value (shortened to “Ratio … Nalm-6, Effecter:Target = 3:1”) was determined as 1.2 ratio.

B5: CD19-28z-Em13 (other)
chain: DIQMTQTTSSLSASLGDRVTISCRASQDISKYLNWYQQKPDGTVKLLIYHTSRLHSGVPSRFEGEGEGTEYELTISNLEQEDIATYFCQQGNTLPYTFGGGTKLEITGGGGSGGGGSGGGGSEVKLQESGPGLVAPSQSLSVTCTVSGVSLPDYGVSWIRQPPRKGLEWLGVIWGSETTYYNSALKSRLTIIKDNSKSQVFLKMNSLQTDDTAIYYCAKHYYYGGSYAMDYWGQGTSVTVSSIEVMYPPPYLDNEKSNGTIIHVKGKHLCPSPLFPGPSKPFWVLVVVGGVLACYSLLVTVAFIIFWVRSKRSRLLHSDYMNMTPRRPGPTRKHYQPYAPPRDFAAYRSL[not shown - about 120 residues]
For the molecule B5, in test [3], the “Cell lysis (%) … Effecter:Target = 1:1” value amounted to 32% and the “Ratio of Cell lysis … Effecter:Target = 1:1” value came to 1.52 ratio. In addition, in test [4], the “Cell lysis (%), CAR-T cells on Nalm-6, Effecter:Target = 3:1” value was 68% and the “Ratio … Nalm-6, Effecter:Target = 3:1” value turned out to be 1.36 ratio.

B6: CD19-28z-Em9 (other)
chain: DIQMTQTTSSLSASLGDRVTISCRASQDISKYLNWYQQKPDGTVKLLIYHTSRLHSGVPSRFSGSGSGTEYELEISNLEQEDIATYFCQQGNTLPYTFGGGTKLEITGGGGSGGGGSGGGGSEVKLQESGPGLVAPSQSLSVTCTVSGVSLPDYGVSWIRQPPRKGLEWLGVIWGSETTYYNSALKSRLTIIKDNSKSQVFLKMNSLQTDDTAIYYCAKHYYYGGSYAMDYWGQGTSVTVSSIEVMYPPPYLDNEKSNGTIIHVKGKHLCPSPLFPGPSKPFWVLVVVGGVLACYSLLVTVAFIIFWVRSKRSRLLHSDYMNMTPRRPGPTRKHYQPYAPPRDFAAYRSL[not shown - about 120 residues]
In the case of B6, in test [3], the “Cell lysis (%) … Effecter:Target = 1:1” value came out at 39% and the “Ratio of Cell lysis … Effecter:Target = 1:1” value stood at 1.86 ratio. In test [4], the “Cell lysis (%), CAR-T cells on Nalm-6, Effecter:Target = 3:1” value is 94% and the “Ratio … Nalm-6, Effecter:Target = 3:1” value stood at 1.88 ratio.

B7: CD19-28z-Dm12 (other)
chain: DIQMTQTTSSLSASLGDRVTISCRASQDISKYLNWYQQKPDGTVKLLIYHTSRLHSGVPSRFDGDGDGTDYDLTISNLEQEDIATYFCQQGNTLPYTFGGGTKLEITGGGGSGGGGSGGGGSEVKLQESGPGLVAPSQSLSVTCTVSGVSLPDYGVSWIRQPPRKGLEWLGVIWGSETTYYNSALKSRLTIIKDNSKSQVFLKMNSLQTDDTAIYYCAKHYYYGGSYAMDYWGQGTSVTVSSIEVMYPPPYLDNEKSNGTIIHVKGKHLCPSPLFPGPSKPFWVLVVVGGVLACYSLLVTVAFIIFWVRSKRSRLLHSDYMNMTPRRPGPTRKHYQPYAPPRDFAAYRSL[not shown - about 120 residues]
Regarding B7, in test [3], the “Cell lysis (%) … Effecter:Target = 1:1” value worked out at 47% and the “Ratio of Cell lysis … Effecter:Target = 1:1” value was determined as 2.24 ratio. Also, in test [4], the “Cell lysis (%), CAR-T cells on Nalm-6, Effecter:Target = 3:1” value stood at 75% and the “Ratio … Nalm-6, Effecter:Target = 3:1” value was 1.5 ratio.

B8: CD19-28z-Dm11 (other)
chain: DIQMTQTTSSLSASLGDRVTISCRASQDISKYLNWYQQKPDGTVKLLIYHTSRLHSGVPSRFDGSGDGTDYDLTISNLEQEDIATYFCQQGNTLPYTFGGGTKLEITGGGGSGGGGSGGGGSEVKLQESGPGLVAPSQSLSVTCTVSGVSLPDYGVSWIRQPPRKGLEWLGVIWGSETTYYNSALKSRLTIIKDNSKSQVFLKMNSLQTDDTAIYYCAKHYYYGGSYAMDYWGQGTSVTVSSIEVMYPPPYLDNEKSNGTIIHVKGKHLCPSPLFPGPSKPFWVLVVVGGVLACYSLLVTVAFIIFWVRSKRSRLLHSDYMNMTPRRPGPTRKHYQPYAPPRDFAAYRSL[not shown - about 120 residues]
In the case of B8, in test [3], the “Cell lysis (%) … Effecter:Target = 1:1” value came out at 49% and the “Ratio of Cell lysis … Effecter:Target = 1:1” value turned out to be 2.33 ratio. In test [4], the “Cell lysis (%), CAR-T cells on Nalm-6, Effecter:Target = 3:1” value was 81% and the “Ratio … Nalm-6, Effecter:Target = 3:1” value was determined as 1.62 ratio.

B9: CD19-28z-Dm10 (other)
chain: DIQMTQTTSSLSASLGDRVTISCRASQDISKYLNWYQQKPDGTVKLLIYHTSRLHSGVPSRFDGDGSGTDYDLTISNLEQEDIATYFCQQGNTLPYTFGGGTKLEITGGGGSGGGGSGGGGSEVKLQESGPGLVAPSQSLSVTCTVSGVSLPDYGVSWIRQPPRKGLEWLGVIWGSETTYYNSALKSRLTIIKDNSKSQVFLKMNSLQTDDTAIYYCAKHYYYGGSYAMDYWGQGTSVTVSSIEVMYPPPYLDNEKSNGTIIHVKGKHLCPSPLFPGPSKPFWVLVVVGGVLACYSLLVTVAFIIFWVRSKRSRLLHSDYMNMTPRRPGPTRKHYQPYAPPRDFAAYRSL[not shown - about 120 residues]
Consider B9, for which, in test [3], the “Cell lysis (%) … Effecter:Target = 1:1” value is 50% and the “Ratio of Cell lysis … Effecter:Target = 1:1” value turned out to be 2.38 ratio. Moreover, in test [4], the “Cell lysis (%), CAR-T cells on Nalm-6, Effecter:Target = 3:1” value was determined as 98% and the “Ratio … Nalm-6, Effecter:Target = 3:1” value amounted to 1.96 ratio.
